Substitutions are numbered along the chain they refer to. One block for each binder: values may come before it.
What was measured:
[1] = biological target: T1, PD-L1 (programmed death-ligand 1), recombinant protein (human, UniProt Q9NZQ7 in part, limits assumed); assay: direct ELISA, coated PD-L1
T1 construct: the other ELISAs print only 'PD-L1'; also called human PDL1; CD274
Excerpt: (§1) ELISA assay was employed to determine the binding properties of the bispecific antibodies to their antigens. […] The wells were then reacted with goat anti human IgG antibody conjugated with horseradish peroxidase (HRP).

[2] = biological target: T1, PD-L1 (programmed death-ligand 1), …; assay: direct ELISA, coated PD-L1 (FIG. 10B)
[3] = biological target: claudin 18.2 (CLDN 18.2), recombinant protein (human); assay: direct ELISA, coated recombinant CLDN 18.2
Excerpt: as §1

[4] = biological target: claudin 18.2 (CLDN 18.2), recombinant protein (human); assay: direct ELISA, coated recombinant CLDN 18.2 (FIG. 10A)
[5] = biological target: claudin 18.2 (CLDN 18.2), recombinant protein (human); assay: direct ELISA, coated recombinant CLDN 18.2 (FIG. 11B)
[6] = biological target: claudin 18.2 (CLDN 18.2), recombinant protein (human); assay: ELISA at pH4.5, coated CLDN 18.2 (FIG. 8A)
[7] = biological target: T1, PD-L1 (programmed death-ligand 1), …; assay: ELISA at pH4.5, coated PD-L1 (FIG. 8B)
[8] = biological target: T1, PD-L1 (programmed death-ligand 1), …; assay: ELISA at pH6, coated PD-L1 (FIG. 8B)
[9] = biological target: T1, PD-L1 (programmed death-ligand 1), …; assay: ELISA at pH4, coated PD-L1 (FIG. 8B)
[10] = biological target: T2, CLDN 18.2 fused with GFP at its C-terminal, on MCF7 cells (MCF7-CLDN 18.2) (human); assay: cell-based or functional assay
[11] = biological target: T3, CLDN 18.2 expressed on stably transfected cells (HEK293T-CLDN 18.2, MiaPaCa-CLDN 18.2) (human); assay: cell-based or functional assay
[12] = biological target: claudin 18.2 (CLDN 18.2), recombinant protein (human); assay: ELISA at pH3, coated CLDN 18.2 (FIG. 8A)
[13] = biological target: claudin 18.2 (CLDN 18.2), recombinant protein (human); assay: direct ELISA, coated recombinant CLDN 18.2 (FIG. 7A)
[14] = biological target: T2, CLDN 18.2 fused with GFP at its …; assay: flow cytometry on living MCF7 cells stably expressing CLDN 18.2, DyLight 650 anti-IgG
[15] = biological target: claudin 18.2 (CLDN 18.2), recombinant protein (human); assay: ELISA at pH6, coated CLDN 18.2 (FIG. 8A)
[16] = biological target: T1, PD-L1 (programmed death-ligand 1), …; assay: ELISA at pH3, coated PD-L1 (FIG. 8B)
[17] = biological target: claudin 18.2 (CLDN 18.2), recombinant protein (human); assay: ELISA at pH4, coated CLDN 18.2 (FIG. 8A)
[18] = biological target: T3, CLDN 18.2 expressed on stably …; assay: In-Cell ELISA on fixed HEK293T cells over-expressing CLDN 18.2
[19] = biological target: T2, CLDN 18.2 fused with GFP at its …; assay: cell-based or functional assay; remark: listed apart in the source
[20] = biological target: T3, CLDN 18.2 expressed on stably …; assay: cell-based or functional assay; remark: listed apart in the source
[21] = biological target: T1, PD-L1 (programmed death-ligand 1), …; assay: direct ELISA, coated PD-L1 (FIG. 7B)
[22] = biological target: T1, PD-L1 (programmed death-ligand 1), …; assay: direct ELISA, coated PD-L1 (FIG. 9B)
[23] = biological target: claudin 18.2 (CLDN 18.2), recombinant protein (human); assay: direct ELISA, coated recombinant CLDN 18.2 (FIG. 9A)
[24] = biological target: T1, PD-L1 (programmed death-ligand 1), …; assay: competitive ELISA, coated PD-L1, antibody pre-incubated with soluble PD-L1
[25] = biological target: T1, PD-L1 (programmed death-ligand 1), …; assay: direct ELISA, coated PD-L1 (FIG. 12A)
[26] = biological target: T1, PD-L1 (programmed death-ligand 1), …; assay: competitive ELISA, coated PD-L1, antibody pre-incubated with soluble PD-L1 (FIG. 12B)

T1 sequence (Q9NZQ7 19-238 limits assumed): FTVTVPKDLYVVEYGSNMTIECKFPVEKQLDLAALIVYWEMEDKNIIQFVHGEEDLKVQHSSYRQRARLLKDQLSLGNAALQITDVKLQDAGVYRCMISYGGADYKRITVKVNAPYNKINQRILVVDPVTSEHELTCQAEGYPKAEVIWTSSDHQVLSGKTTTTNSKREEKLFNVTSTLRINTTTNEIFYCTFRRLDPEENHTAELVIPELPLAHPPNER

B2: scDb01, single-chain anti-CLDN 18.2/anti-PD-L1 bispecific antibody (bispecific antibody)
chain: DIQMTQSPSSLSASVGDRVTITCKSSQSLLNSGNQKSYLTWYQQKPGKAPKLLIYWASTLESGVPSRFSGSGSGTDYTLTISSLQPEDFATYYCQNAYFFPFTFGQGTKVEIKSGGGGEVQLVESGGGLVQPGGSLRLSCAASGFTFSRYWMSWVRQAPGKGLEWVANIKQDGSEKYYVDSVKGRFTISRDNAKNSLYLQMNSLRAEDTAVYYCAREGGWFGELAFDYWGQGTLVTVSSGGGGSGGGGSGGGGSEIVLTQSPGTLSLSPGERATLSCRASQRVSSSYLAWYQQKPGQAPRLLIYDASSRATGIPDRFSGSGSGTDFTLTISRLEPEDFAVYYCQQYGSLPWTFGQGTKVEIKSGGGGEVQLVESGGGLVQPGGSLRLSCAVSGYTFSMNWVRQAPGKGLEWVAWINMYTGEPTYADDFKGRFTISRDDSKNTLYLQMNSLRAEDTAVYYCARLYNGNSLDYWGQGTLVTVSSGGGGS[human IgG1 Fc with C220S (EU numbers) not printed]
notes: 5C9ob VL-L1-durvalumab VH-L2-durvalumab VL-L3-5C9ob VH-L4-Fc (CH2CH3) on one polypeptide; also called ScDBO1; scD01
Kd [5]: 0.279 nM | Kd [6]: 0.16 nM | Kd [7]: 0.335 nM | Kd [8]: 0.352 nM | Kd [9]: 0.343 nM | Kd [1]: 0.59 nM | ADCC Reporter in MCF7-CLDN 18.2, EC50 [10]: 0.003 nM | ADCC Reporter in HEK293-CLDN18.2, EC50 [11]: 0.004 nM | CDC in HEK293-CLDN 18.2, EC50 [11]: 1.29 nM | Kd [12]: 0.252 nM | Kd [13]: 0.263 nM | EC50 (read off the curve) [14]: ~3 nM | Kd [15]: 0.158 nM | Kd [16]: 0.488 nM | Kd [17]: 0.176 nM | Kd [3]: 0.26 nM | Bmax [18]: 1.25 nM | Kd [18]: 0.582 nM | ADCC reporter assay, EC50 (FIG. 24A) [19]: 0.00203 nM | ADCC reporter assay, EC50 (FIG. 18) [20]: 0.0156 nM | ADCC reporter assay, EC50 (FIG. 23A) [20]: 0.0042 nM | Kd [21]: 0.585 nM

B4: scDb02, single-chain bispecific antibody with VH44-VL100 disulfides (bispecific antibody)
chain: B2 chain with Q106C, G162C, Q355C, G408C
notes: Single polypeptide with Fc; also called ScDb2
Kd [22]: 0.4 nM | Kd [1]: 0.4 nM | Kd [3]: 0.21 nM | Kd [23]: 0.208 nM

B5: Dblnk18, linker-enhanced single-chain bispecific antibody (bispecific antibody)
chain: DIQMTQSPSSLSASVGDRVTITCKSSQSLLNSGNQKSYLTWYQQKPGKAPKLLIYWASTLESGVPSRFSGSGSGTDYTLTISSLQPEDFATYYCQNAYFFPFTFGQGTKVEIKGSGSGGEVQLVESGGGLVQPGGSLRLSCAASGFTFSRYWMSWVRQAPGKGLEWVANIKQDGSEKYYVDSVKGRFTISRDNAKNSLYLQMNSLRAEDTAVYYCAREGGWFGELAFDYWGQGTLVTVSSGGGGSSGSGSSSRSSGGEIVLTQSPGTLSLSPGERATLSCRASQRVSSSYLAWYQQKPGQAPRLLIYDASSRATGIPDRFSGSGSGTDFTLTISRLEPEDFAVYYCQQYGSLPWTFGQGTKVEIKGSGGGEVQLVESGGGLVQPGGSLRLSCAVSGYTFSMNWVRQAPGKGLEWVAWINMYTGEPTYADDFKGRFTISRDDSKNTLYLQMNSLRAEDTAVYYCARLYNGNSLDYWGQGTLVTVSSGGGGS[human IgG1 Fc with C220S (EU numbers) not printed]
notes: Single polypeptide with Fc; also called DbInk18
Kd [5]: 0.217 nM | Kd [1]: 0.49 nM | ADCC Reporter in MCF7-CLDN 18.2, EC50 [10]: 0.0058 nM | Kd [3]: 0.22 nM | Kd [24]: 0.65 nM | Kd [25]: 0.492 nM | ADCC reporter assay, EC50 (FIG. 24B) [19]: 0.00579 nM | IC50 [26]: 0.652 nM

Second part, led by results:

Kd [3]: 0.21 nM | Kd [4]: 0.21 nM
B1: scDb06, single-chain bispecific antibody with VH44-VL100 disulfides and longer L2 (bispecific antibody)
chain: DIQMTQSPSSLSASVGDRVTITCKSSQSLLNSGNQKSYLTWYQQKPGKAPKLLIYWASTLESGVPSRFSGSGSGTDYTLTISSLQPEDFATYYCQNAYFFPFTFGCGTKVEIKSGGGGEVQLVESGGGLVQPGGSLRLSCAASGFTFSRYWMSWVRQAPGKCLEWVANIKQDGSEKYYVDSVKGRFTISRDNAKNSLYLQMNSLRAEDTAVYYCAREGGWFGELAFDYWGQGTLVTVSSGGGGSGGGGSGGGGSGGGGSEIVLTQSPGTLSLSPGERATLSCRASQRVSSSYLAWYQQKPGQAPRLLIYDASSRATGIPDRFSGSGSGTDFTLTISRLEPEDFAVYYCQQYGSLPWTFGCGTKVEIKSGGGGEVQLVESGGGLVQPGGSLRLSCAVSGYTFSMNWVRQAPGKCLEWVAWINMYTGEPTYADDFKGRFTISRDDSKNTLYLQMNSLRAEDTAVYYCARLYNGNSLDYWGQGTLVTVSSGGGGS[human IgG1 Fc with C220S (EU numbers) not printed]
notes: Single polypeptide with Fc
Kd [1]: 0.35 nM | Kd [2]: 0.352 nM

Kd [3]: 0.25 nM | Kd [23]: 0.252 nM
B3: scDb04, single-chain bispecific antibody with a VH42-VH3 disulfide (bispecific antibody)
chain: B2 chain with Q121C, G406C
notes: Single polypeptide with Fc; also called ScDb4
Kd [22]: 0.512 nM | Kd [1]: 0.51 nM
